# Source: the supplement of paper PMC8728848
# The other results are listed elsewhere or left out.
# B1: CwpV (Clostridium difficile), B6EFG6 (protein)
# chain: MKIPKKIAAMLTVTMIAGSSTAGIASAQTVATNLTGQERYETAVKISQDGWKNADEVVIVNDSSIADALSATPFAKAKNAPILLTSKDKLNDKTKAEIQRLKAKKVYLIGGTSVLSTNIEKEIKDLKISFERISGAERYQTSLELAKKLDAISDVKKIAVVNGEKGLADAVSVGAPAAQNNMPVILADSKNGTAVADKFIKDAGITQSYVVGGESSISEAVKNKLPNSTRLGGTDRNDTNAKVIKEFYKKTDLKNAYVTKDGMNKQDQLIDALAVGVLGAKNQSPVVLVGKNLSASQKSLVNSKSFDKITKVGGNGNETAFNEMKSLQEVKTVEAKTISELKSAIDKATANDVINFKPTSEVKEAFTIQTDKAVTVNLNGTYTKTVTINMPNGDVNNYAKVDDVVIDDVKDGTFVNYGKITNLKVNDKNGAKIENNSKGEIGSLTVASGASQVKVTNGGKITTVTNNSKGTTIDNKGTISSVKGDNSPTISGNSPSSNSSGGSSSSGGSSGGSSGGSSSSKVGQIKFSATDKQIKMASGDKTVDPSDNTYILKLTNGTVKDGDVKANVKVAGLPSGLDYTAVGNRSANTITITVSGTTSQSIQNDLNNVSVLVKAGAVSGTGATDSIANTTFEIKKYVAAPAVGQLTFDATDKQIKMASGDKTVDPSDDTYVLTLTKGTAKDGDIKANVEVTGLPSGLDYTAEGDSSANTITIPVSGTASPAVQTDLDNVSVLVKAGAVSETTATDSAANATFEVKKYVAPAVGQLTFDATDKQIKMASGDKTVDPSDDTYVLTLTKGTAKDGDIKANVEVTGLPSGLDYTAEGDSSANTITITVSGTASQAVQTDLDNVSVLVKAGAVSETTATDSAANATFEVKKYVAPAIGQLTFDATDKQIKMASGDKTVDPSDDTYVLTLTKGTAKDGDIKANVEVTGLPSGLDYTAEGDSSANTITITVSGTASQAVQTDLDNVSVLVKAGAVSETTATDSAANATFEVKKHASDPISTIGKISSGLSSLFNILK
# Experiments:
# Experiment in all cases: glycan array binding signal (z-score within array); higher = stronger binding
# Settings in all cases: glycan notation: IUPAC condensed, linker removed
# [1] = molecular target: Neu5Ac(a2-3)Gal(b1-4)[Fuc(a1-3)]GlcNAc(b1-3)GalNAc
# How it was run: (§1)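 The binding signal is a Z-score computed within each array and averaged over linkers. Arrays of the same protein sequence at different concentrations or buffers were also averaged together. Data originate from 3228 arrays in the Consortium for Functional Glycomics database, kept only where the protein sequence was available.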
# [2] = molecular target: Neu5Ac(a2-3)Gal(b1-4)[Fuc(a1-3)]GlcNAc(b1-6)[Gal(b1-3)]GalNAc
# How it was run: as §1
# [3] = molecular target: Neu5Ac(a2-3)Gal(b1-4)[Fuc(a1-3)]GlcNAc(b1-6)[Neu5Ac(a2-3)Gal(b1-3)]GalNAc
# How it was run: as §1
# [4] = molecular target: Neu5Ac(a2-3)Gal(b1-4)[Fuc(a1-3)]GlcNAc6S
# How it was run: as §1
# [5] = molecular target: Neu5Ac(a2-3)Gal6S(b1-4)GlcNAc
# How it was run: as §1
# [6] = molecular target: Neu5Ac(a2-3)Gal6S(b1-4)[Fuc(a1-3)]GlcNAc
# How it was run: as §1
# [7] = molecular target: Neu5Ac(a2-3)GalNAc
# How it was run: as §1
# [8] = molecular target: Neu5Ac(a2-3)GalNAc(b1-4)GlcNAc
# How it was run: as §1
# [9] = molecular target: Neu5Ac(a2-3)[GalNAc(b1-4)]Gal(b1-4)Glc
# How it was run: as §1
# [10] = molecular target: Neu5Ac(a2-3)[GalNAc(b1-4)]Gal(b1-4)GlcNAc
# How it was run: as §1
# [11] = molecular target: Neu5Ac(a2-3)[GalNAc(b1-4)]Gal(b1-4)GlcNAc(b1-3)GalNAc
# How it was run: as §1
# [12] = molecular target: Neu5Ac(a2-3)[Neu5Ac(a2-6)]GalNAc
# How it was run: as §1
# [13] = molecular target: Neu5Ac(a2-6)Gal
# How it was run: as §1
# [14] = molecular target: Neu5Ac(a2-6)Gal(b1-3)GlcNAc(b1-3)[Gal(b1-4)GlcNAc(b1-6)]Gal(b1-4)Glc
# How it was run: as §1
# [15] = molecular target: Neu5Ac(a2-6)Gal(b1-4)Glc
# How it was run: as §1
# [16] = molecular target: Neu5Ac(a2-6)Gal(b1-4)GlcNAc
# How it was run: as §1
# [17] = molecular target: Neu5Ac(a2-6)Gal(b1-4)GlcNAc(b1-2)Man(a1-3)Man(b1-4)GlcNAc(b1-4)GlcNAc
# How it was run: as §1
# [18] = molecular target: Neu5Ac(a2-6)Gal(b1-4)GlcNAc(b1-2)Man(a1-3)[Gal(b1-4)GlcNAc(b1-2)Man(a1-6)]Man(b1-4)GlcNAc(b1-4)GlcNAc
# How it was run: as §1
# [19] = molecular target: Neu5Ac(a2-6)Gal(b1-4)GlcNAc(b1-2)Man(a1-3)[GlcNAc(b1-2)Man(a1-6)]Man(b1-4)GlcNAc(b1-4)GlcNAc
# How it was run: as §1
# [20] = molecular target: Neu5Ac(a2-6)Gal(b1-4)GlcNAc(b1-2)Man(a1-3)[GlcNAc(b1-2)Man(b1-4)GlcNAc(b1-2)Man(a1-6)]Man(b1-4)GlcNAc(b1-4)GlcNAc
# How it was run: as §1
# [21] = molecular target: Neu5Ac(a2-6)Gal(b1-4)GlcNAc(b1-2)Man(a1-3)[Man(a1-6)]Man(b1-4)GlcNAc(b1-4)GlcNAc
# How it was run: as §1
# [22] = molecular target: Neu5Ac(a2-6)Gal(b1-4)GlcNAc(b1-2)Man(a1-3)[Neu5Ac(a2-6)Gal(b1-4)GlcNAc(b1-2)Man(a1-6)]Man(b1-4)GlcNAc(b1-4)GlcNAc
# How it was run: as §1
# [23] = molecular target: Neu5Ac(a2-6)Gal(b1-4)GlcNAc(b1-2)Man(a1-6)Man(b1-4)GlcNAc(b1-4)GlcNAc
# How it was run: as §1
# [24] = molecular target: Neu5Ac(a2-6)Gal(b1-4)GlcNAc(b1-2)Man(a1-6)[Gal(b1-4)GlcNAc(b1-2)Man(a1-3)]Man(b1-4)GlcNAc(b1-4)GlcNAc
# How it was run: as §1
# [25] = molecular target: Neu5Ac(a2-6)Gal(b1-4)GlcNAc(b1-2)Man(a1-6)[GlcNAc(b1-2)Man(a1-3)]Man(b1-4)GlcNAc(b1-4)GlcNAc
# How it was run: as §1
# [26] = molecular target: Neu5Ac(a2-6)Gal(b1-4)GlcNAc(b1-2)Man(a1-6)[Man(a1-3)]Man(b1-4)GlcNAc(b1-4)GlcNAc
# How it was run: as §1
# [27] = molecular target: Neu5Ac(a2-6)Gal(b1-4)GlcNAc(b1-3)Gal(b1-3)GlcNAc
# How it was run: as §1
# [28] = molecular target: Neu5Ac(a2-6)Gal(b1-4)GlcNAc(b1-3)Gal(b1-4)GlcNAc
# How it was run: as §1
# [29] = molecular target: Neu5Ac(a2-6)Gal(b1-4)GlcNAc(b1-3)Gal(b1-4)GlcNAc(b1-3)Gal(b1-4)GlcNAc
# How it was run: as §1
# [30] = molecular target: Neu5Ac(a2-6)Gal(b1-4)GlcNAc(b1-3)Gal(b1-4)[Fuc(a1-3)]GlcNAc(b1-3)Gal(b1-4)[Fuc(a1-3)]GlcNAc
# How it was run: as §1
# [31] = molecular target: Neu5Ac(a2-6)Gal(b1-4)GlcNAc(b1-3)GalNAc
# How it was run: as §1
# [32] = molecular target: Neu5Ac(a2-6)Gal(b1-4)GlcNAc6S
# How it was run: as §1
# [33] = molecular target: Neu5Ac(a2-6)GalNAc
# How it was run: as §1
# [34] = molecular target: Neu5Ac(a2-6)GalNAc(b1-4)GlcNAc
# How it was run: as §1
# [35] = molecular target: Neu5Ac(a2-6)GlcNAc(b1-4)GlcNAc
# How it was run: as §1
# [36] = molecular target: Neu5Ac(a2-6)GlcNAc(b1-4)GlcNAc(b1-4)GlcNAc
# How it was run: as §1
# [37] = molecular target: Neu5Ac(a2-8)Neu5Ac
# How it was run: as §1
# [38] = molecular target: Neu5Ac(a2-8)Neu5Ac(a2-3)Gal(b1-4)Glc
# How it was run: as §1
# [39] = molecular target: Neu5Ac(a2-8)Neu5Ac(a2-3)[Gal(b1-3)GalNAc(b1-4)]Gal(b1-4)Glc
# How it was run: as §1
# [40] = molecular target: Neu5Ac(a2-8)Neu5Ac(a2-3)[GalNAc(b1-4)]Gal(b1-4)Glc
# How it was run: as §1
# [41] = molecular target: Neu5Ac(a2-8)Neu5Ac(a2-8)Neu5Ac
# How it was run: as §1
# [42] = molecular target: Neu5Ac(a2-8)Neu5Ac(a2-8)Neu5Ac(a2-3)Gal(b1-4)Glc
# How it was run: as §1
# [43] = molecular target: Neu5Ac(a2-8)Neu5Ac(a2-8)Neu5Ac(a2-3)[GalNAc(b1-4)]Gal(b1-4)Glc
# How it was run: as §1
# [44] = molecular target: Neu5Ac(a2-8)Neu5Ac(a2-8)Neu5Ac(a2-8)Neu5Ac(a2-3)[GalNAc(b1-4)]Gal(b1-4)Glc
# How it was run: as §1
# [45] = molecular target: Neu5Ac(b2-6)Gal(b1-4)GlcNAc
# How it was run: as §1
# [46] = molecular target: Neu5Ac(b2-6)GalNAc
# How it was run: as §1
# [47] = molecular target: Neu5Ac9Ac(a2-3)Gal(b1-3)GlcNAc
# How it was run: as §1
# [48] = molecular target: Neu5Ac9Ac(a2-3)Gal(b1-4)GlcNAc
# How it was run: as §1
# [49] = molecular target: Neu5Ac9Ac(a2-6)Gal(b1-4)GlcNAc
# How it was run: as §1
# [50] = molecular target: Neu5Gc(a2-3)Gal(b1-3)GlcNAc
# How it was run: as §1
# [51] = molecular target: Neu5Gc(a2-3)Gal(b1-3)[Fuc(a1-4)]GlcNAc
# How it was run: as §1
# [52] = molecular target: Neu5Gc(a2-3)Gal(b1-4)Glc
# How it was run: as §1
# [53] = molecular target: Neu5Gc(a2-3)Gal(b1-4)GlcNAc
# How it was run: as §1
# [54] = molecular target: Neu5Gc(a2-3)Gal(b1-4)[Fuc(a1-3)]GlcNAc
# How it was run: as §1
# [55] = molecular target: Neu5Gc(a2-6)Gal(b1-4)GlcNAc
# How it was run: as §1
# [56] = molecular target: Neu5Gc(a2-6)GalNAc
# How it was run: as §1
# [57] = molecular target: Neu5Gc(b2-6)Gal(b1-4)GlcNAc
# How it was run: as §1
binder,measurement,setting,value
B1,glycan array binding signal (z-score),[1],0.417
same,glycan array binding signal (z-score),[2],0.737
same,glycan array binding signal (z-score),[3],0.286
same,glycan array binding signal (z-score),[4],-0.323
same,glycan array binding signal (z-score),[5],-0.321
same,glycan array binding signal (z-score),[6],-0.342
same,glycan array binding signal (z-score),[7],-0.322
same,glycan array binding signal (z-score),[8],0.576
same,glycan array binding signal (z-score),[9],-0.277
same,glycan array binding signal (z-score),[10],-0.253
same,glycan array binding signal (z-score),[11],-0.232
same,glycan array binding signal (z-score),[12],-0.335
same,glycan array binding signal (z-score),[13],-0.318
same,glycan array binding signal (z-score),[14],-0.21
same,glycan array binding signal (z-score),[15],-0.296
same,glycan array binding signal (z-score),[16],-0.341
same,glycan array binding signal (z-score),[17],-0.274
same,glycan array binding signal (z-score),[18],-0.163
same,glycan array binding signal (z-score),[19],-0.249
same,glycan array binding signal (z-score),[20],-0.314
same,glycan array binding signal (z-score),[21],-0.135
same,glycan array binding signal (z-score),[22],-0.216
same,glycan array binding signal (z-score),[23],-0.299
same,glycan array binding signal (z-score),[24],-0.34
same,glycan array binding signal (z-score),[25],-0.308
same,glycan array binding signal (z-score),[26],-0.302
same,glycan array binding signal (z-score),[27],-0.127
same,glycan array binding signal (z-score),[28],0.301
same,glycan array binding signal (z-score),[29],0.385
same,glycan array binding signal (z-score),[30],0.221
same,glycan array binding signal (z-score),[31],0.056
same,glycan array binding signal (z-score),[32],-0.155
same,glycan array binding signal (z-score),[33],-0.276
same,glycan array binding signal (z-score),[34],-0.063
same,glycan array binding signal (z-score),[35],-0.279
same,glycan array binding signal (z-score),[36],-0.284
same,glycan array binding signal (z-score),[37],-0.32
same,glycan array binding signal (z-score),[38],-0.287
same,glycan array binding signal (z-score),[39],-0.239
same,glycan array binding signal (z-score),[40],-0.287
same,glycan array binding signal (z-score),[41],-0.32
same,glycan array binding signal (z-score),[42],-0.222
same,glycan array binding signal (z-score),[43],-0.259
same,glycan array binding signal (z-score),[44],-0.269
same,glycan array binding signal (z-score),[45],-0.344
same,glycan array binding signal (z-score),[46],-0.286
same,glycan array binding signal (z-score),[47],-0.321
same,glycan array binding signal (z-score),[48],-0.03
same,glycan array binding signal (z-score),[49],-0.322
same,glycan array binding signal (z-score),[50],-0.293
same,glycan array binding signal (z-score),[51],-0.33
same,glycan array binding signal (z-score),[52],-0.229
same,glycan array binding signal (z-score),[53],-0.046
same,glycan array binding signal (z-score),[54],-0.263
same,glycan array binding signal (z-score),[55],-0.292
same,glycan array binding signal (z-score),[56],-0.29
same,glycan array binding signal (z-score),[57],-0.322
